Measured values from PubChem BioAssay AID686971 (National Center for Advancing Translational Sciences (NCATS), 2013).
Screen size: about 360,000 compounds; about 7,500 (2.1%) were called active. The shares of active, inactive and inconclusive entries below differ from those in the screen. Calls follow the shape of the dose curve; as a rule, active = well fitted cell-killing curve with a large enough effect; inconclusive = small, poorly fitted or top-dose-only effect, or effect the other way, or another doubt; inactive = no such curve, though single readings can be large or run the other way. Potencies of inconclusive entries are left out as doubtful fits.
Potency is read from the fitted curve at half-maximal effect; tags tell the direction and shape of the fitted curve.

Experiment: qHTS for induction of synthetic lethality in tumor cells producing 2HG: qHTS for the HT-1080-IDH1KD cell line;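 as to activity, negative = toxicity: 0% = DMSO wells and -100% = cell-free medium wells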
Settings: HT-1080 IDH1 knockdown viability, ATP luminescence, 48 h; activity, negative = toxicity: at 46.1 µM (top of the series) unless noted
Summary of the method: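 Luminescent ATP read-out (CellTiter-Glo, 10 min at room temperature) after 48 h compound exposure at 37 °C gave viability of IDH1-knockdown HT-1080 cells. Activity was normalised to DMSO and cell-free wells, then fitted as concentration-response curves.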
With `COc1ccccc1N(CC(O)Cn1c2ccccc2c2ccccc21)S(=O)(=O)c1ccccc1` (stereo not drawn) the “activity, negative = toxicity” value was inactive: -21.5%.
For `C=CCn1c(SCC(O)Cn2c3ccccc3c3ccccc32)nnc1-c1ccco1` (stereo not drawn), the Potency was inconclusive [cytotoxic, single point].
For `CCN(CC)S(=O)(=O)c1ccc(N/N=C/c2ccc(O)cc2O)nc1`, the Potency was inconclusive [cytotoxic, full curve].
With `Cc1ccc(NC(=O)c2ncn(CCCN[C@H](C)c3cccc4ccccc34)n2)cc1C` the Potency was inconclusive [cytotoxic, single point].
With `CCc1ccc(NSc2ccccc2[N+](=O)[O-])cc1` the Potency was inconclusive [cytotoxic, single point].
In the case of `COc1ccc(N(C(=O)c2snc(C(N)=O)c2N)C(CC(C)C)C(=O)NCC2CCCO2)cc1` (stereo not drawn), the “activity, negative = toxicity” value is reported as inactive: 1.38%.
In the case of `COC(=O)[C@@]12C[C@@H](CC(=O)NCCc3ccccc3OC)C(=O)N(Cc3ccc4c(c3)OCO4)C1=CCC(C)(C)C2`, the Potency is reported as inconclusive [cytotoxic, single point].
For `COc1cc(NC2=Nc3cccc4cccc2c34)cc(OC)c1OC`, the Potency was inconclusive [cytotoxic, single point].
In the case of `CC1=C(C(=O)N2CCCC(C(=O)c3cccc4ccccc34)C2)OCCO1` (stereo not drawn), the “activity, negative = toxicity” value is reported as inactive: -9.85%.
For `O=C(NCCN1CCC(n2c(=O)[nH]c3ccccc32)CC1)c1ccc(Cl)cc1Cl`, the Potency was inconclusive [cytotoxic, single point].
With `CC(C)CNC(=S)NNC(=O)c1csc2c1CCC(C)C2` (stereo not drawn) the Potency was inconclusive [cytotoxic, single point].
With `Cc1ccc(Cn2nnc3c(=O)[nH]c(C4CCN(S(=O)(=O)c5ccc(F)cc5)CC4)nc32)cc1` the Potency was inconclusive [cytotoxic, single point].
In the case of `Cc1[nH]n(C(N)=S)c(=O)c1N=Nc1cccc(C(F)(F)F)c1`, the “activity, negative = toxicity” value is reported as inactive: -6.5%.
In the case of `CC(=O)c1cccc(NC2c3ccccc3C(=O)N2Cc2ccc3c(c2)OCO3)c1` (stereo not drawn), the “activity, negative = toxicity” value is reported as inactive: -7.61%.
In the case of `O=C1N/C(=N\N=C\c2cccs2)SC1Cc1cccc(Cl)c1` (stereo not drawn), the Potency is reported as inconclusive [cytotoxic, single point].
For `COc1ccc(NC(=O)Cn2nnc(C(=O)NCc3ccc4c(c3)OCO4)c2N)c(OC)c1`, the Potency was inconclusive [cytotoxic, single point].
For `CCCCC1=CC2=CC(=O)C(C)(OC(=O)CC)C(=O)C2=CN1c1cccc(C#N)c1` (stereo not drawn), the “activity, negative = toxicity” value was inactive: -5.97%.
In the case of `CCN(CC)C(=O)[C@H]1CC(CC(=O)NC/C=C(\C)CCC=C(C)C)C(=O)N2CCc3c([nH]c4ccccc34)[C@]12C` (stereo partly drawn), the “activity, negative = toxicity” value is reported as inactive: 2.46%.
